Test results as given in PubChem BioAssay AID743255 (National Center for Advancing Translational Sciences (NCATS), 2014).
The whole screen tested about 390,000 compounds, of which about 910 (0.23%) were called active. Not shown: some 5% with an inconclusive outcome. Calls follow the shape of the dose curve; as a rule, active = well fitted inhibition curve with a large enough effect; inconclusive = small, poorly fitted or top-dose-only effect; inactive = no such curve, though single readings can be large or run the other way. The list shows a part of the results, in another mix than the full data.

molecular target: Ubiquitin carboxyl-terminal hydrolase 1 (Homo sapiens) (UniProt O94782); test: Inhibitors of USP1/UAF1: Primary Screen; settings: recombinant USP1/UAF1, Ub-Rhodamine cleavage fluorescence; series mostly up to 57.1 µM; activity change, negative = inhibition: at the top concentration; also: nearly all actives have a fitted effect of over 60% in size
UniProt O94782, sequence (O94782 whole entry, looked up): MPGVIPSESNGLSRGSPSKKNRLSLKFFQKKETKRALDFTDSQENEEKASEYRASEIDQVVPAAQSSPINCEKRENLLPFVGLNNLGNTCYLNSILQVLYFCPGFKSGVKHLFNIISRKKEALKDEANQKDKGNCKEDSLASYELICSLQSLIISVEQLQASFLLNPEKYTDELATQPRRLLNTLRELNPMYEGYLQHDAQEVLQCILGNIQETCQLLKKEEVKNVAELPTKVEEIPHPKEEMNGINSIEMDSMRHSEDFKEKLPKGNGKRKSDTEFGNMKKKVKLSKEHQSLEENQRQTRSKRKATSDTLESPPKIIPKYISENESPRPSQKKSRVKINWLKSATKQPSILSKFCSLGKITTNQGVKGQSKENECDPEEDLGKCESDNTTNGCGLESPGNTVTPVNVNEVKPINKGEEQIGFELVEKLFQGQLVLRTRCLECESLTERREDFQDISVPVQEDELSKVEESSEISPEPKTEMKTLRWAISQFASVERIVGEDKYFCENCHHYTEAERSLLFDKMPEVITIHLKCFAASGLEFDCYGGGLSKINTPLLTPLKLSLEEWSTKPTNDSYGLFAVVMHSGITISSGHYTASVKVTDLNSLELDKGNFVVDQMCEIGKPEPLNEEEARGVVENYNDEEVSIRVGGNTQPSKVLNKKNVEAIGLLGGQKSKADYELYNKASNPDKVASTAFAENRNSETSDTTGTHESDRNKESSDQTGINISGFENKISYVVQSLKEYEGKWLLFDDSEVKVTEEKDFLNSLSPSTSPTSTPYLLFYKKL
Method in brief: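 USP1/UAF1 complex (1 nM) preincubated 15 min at room temperature with compound, then Ub-Rho substrate (150 nM final) added. Kinetic fluorescence at 480/540 nm over 6 reads at 60 s intervals; 50 mM HEPES pH 7.8, 0.5 mM EDTA, 0.1 mg/ml BSA, 1 mM TCEP, 0.01% Tween-20.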
% is scaled to controls: 0 for no effect and ±100 for the full control effect; potency is read from the fitted curve at half-maximal effect.

SMILES | activity change, negative = inhibition | Potency
CN1C[C@H](C(=O)N[C@]2(C)O[C@@]3(O)[C@@H]4CCCN4C(=O)[C@H](Cc4ccccc4)N3C2=O)CC2c3cccc4[nH]cc(c34)C[C@H]21 (stereo partly drawn) | inactive: -23.4% | –
COc1ccc(OC(=O)N(C)C[C@@H]2OCc3cnnn3CCCC(=O)N([C@H](C)CO)C[C@H]2C)cc1 | inactive: -0.218% | –
C[C@]12CCC(=O)C[C@H]1CC[C@@H]1[C@@H]2CC[C@]2(C)C(=O)CC[C@@H]12 | inactive: -3.71% | –
O=c1cccc2n1CC1CNCC2C1 (stereo not drawn) | inactive: -20.4% | –
C[C@@H]1CC2C3CC=C4C[C@@H](O)CC[C@]4(C)C3CC[C@]2(C)[C@H]1O (stereo partly drawn) | inactive: -7.96% | –
O=C1N[C@H](Cc2ccccc2)C(=O)N2[C@@H]3[C@H](C[C@@H]12)c1ccccc1N3OOSc1ccccc1 | inactive: 21.7% | –
CCN1/C(=C/C=C/C2=[N+](CC)c3ccccc3C2(C)C)C(C)(C)c2ccccc21 | – | active: 25.1 µM
C[C@]12CC[C@H](O)C[C@@H]1CC[C@@H]1[C@@H]2CC[C@]2(C)C(=O)CC[C@@H]12 | inactive: -10.2% | –
O=c1[nH]c(=S)n(-c2ccccc2F)c(O)c1C=Nc1ccc(N2CCOCC2)cc1 | – | active: 25.1 µM
C[C@]12CCC3C(CC[C@H]4C[C@H](O)CC[C@]34C)C1C[C@@H](O)[C@H]2O (stereo partly drawn) | inactive: -2.51% | –
Cn1cc(C(=O)OCC(=O)Nc2ccccc2Cl)c2ccccc21 | inactive: 211% | –
O=C1NCCOC(=O)[C@@H](Cc2ccc(F)cc2)CC/C=C/C[C@H]1CC(=O)N(CCO)Cc1ccccc1 | inactive: -32.1% | –
CCOc1ccc(-n2c(O)c(/C=C3\C=Nc4ccccc43)c(=O)[nH]c2=O)cc1 | inactive: 62.9% | –
CN1C(=O)NC(=O)/C(=C/c2ccc([N+](=O)[O-])o2)C1=O | inactive: -26.3% | –
C[C@]12CCC3[C@@H](CC[C@H]4C[C@@H](O)CC[C@]34C)C1CCC2=O (stereo partly drawn) | inactive: -12.5% | –
O=C1CCN(C(=O)CCCn2c(=O)oc3ccccc32)CC1 | inactive: 80.5% | –
Cc1ccc(-c2nn3c(C)nnc3c3ccccc23)cc1S(=O)(=O)NCCO | inactive: -2.83% | –
CN(C)/C=c1\sc2c(C#N)cc(C(=O)c3ccc(Br)cc3)n2c1=O | inactive: 134% | –
CC(C)[C@H](N)C(=O)OCCOCn1cnc2c(=O)[nH]c(N)nc21 | inactive: 2.77% | –
NC1=C(Br)C(=O)c2ccccc2C1=O | – | active: 8.91 µM
CCC1(O)C(=O)OCc2c1cc1n(c2=O)Cc2cc3c(N)cccc3nc2-1 (stereo not drawn) | inactive: -12.6% | –
O=C1NC(=O)C(=Cc2cn(CCOc3ccc4c(c3)OCO4)c3ccccc23)C(=O)N1 | inactive: 153% | –

SMILES | activity change, negative = inhibition | Potency
CCn1c(O)c(C=Nc2ccc(N3CCOCC3)cc2)c(=O)n(CC)c1=S | – | active: 17.8 µM
COc1ccc(C2CC(=O)Nc3cc4c(cc32)OCO4)c(OC)c1 (stereo not drawn) | inactive: 30.9% | –
CC1CCC2[C@@H](C)C(=O)OC3O[C@]4(C)CCC1C32OO4 (stereo partly drawn) | inactive: -12.5% | –
CC1(C)C(=O)CC[C@]2(C)C3C(=O)C=C4[C@H]5C[C@@](C)(C(=O)O)CC[C@]5(C)CC[C@]4(C)[C@]3(C)CC[C@@H]12 (stereo partly drawn) | inactive: -31.2% | –
CN(C)C1C(=O)C(C(N)=O)=C(O)C2(O)C(=O)C3=C(O)c4c(O)cccc4C(C)(O)C3C(O)C12 (stereo not drawn) | inactive: -20.7% | –
CN1Cc2c(c(C#N)c(N)n(C)c2=S)CC1(C)C | – | active: 28.2 µM
COC(=O)C1=COC(C)C2CN3CCC4(C(=O)Nc5ccccc54)C3CC12 (stereo not drawn) | inactive: -4.54% | –
Cc1ccc(N2C(=O)NC(=O)/C(=C\c3ccoc3)C2=O)cc1 | inactive: -30.6% | –
C=C1C(=O)O[C@H]2C[C@@H](C)[C@@H]3C=CC(=O)[C@@]3(C)C[C@H]12 | inactive: 33.4% | –
CC1CCC/C=C/C2CC(O)CC2C(O)/C=C/C(=O)O1 (stereo not drawn) | inactive: 3.85% | –
CCCCNC(=O)c1c(N)n(Cc2ccc3c(c2)OCO3)c2nc3ccccc3nc12 | – | active: 28.2 µM
COC(=O)C1=CO[C@@H](C)[C@@H]2CN3CC[C@@]4(C(=O)Nc5ccccc54)[C@@H]3C[C@H]12 | inactive: -23.9% | –
C[C@@H]1C(=O)O[C@H]2C[C@@]34[C@H]5C[C@@H](C(C)(C)C)[C@]36[C@@H](OC(=O)[C@@H]6O)O[C@@]4(C(=O)O5)[C@]21O | inactive: -6.81% | –
COC(=O)C1=CO[C@@H](C)[C@@H]2CN3CC[C@]4(C(=O)Nc5ccccc54)[C@@H]3C[C@H]12 | inactive: -1.59% | –
O=C1NCCOC(=O)[C@H](Cc2ccc(F)cc2)CC/C=C/C[C@H]1CC(=O)N(CCO)Cc1ccccc1 | inactive: -11.9% | –
Oc1ccc2c3c1O[C@H]1c4oc5ccccc5c4C[C@@]4(O)[C@@H](C2)N(CC2CC2)CC[C@]314 | inactive: -28.9% | –
C=CCN1CC[C@]23c4c5ccc(O)c4OC2C(O)CC[C@@]3(O)[C@H]1C5 (stereo partly drawn) | inactive: -22.9% | –
CN1C(CC(=O)c2ccccc2)CCCC1CC(O)c1ccccc1 (stereo not drawn) | inactive: 7.67% | –
C[C@H]1COC(=O)[C@@H](Cc2ccc(F)cc2)CC/C=C/C[C@@H](CC(=O)N(CCO)Cc2ccccc2)C(=O)N1 | inactive: -0.557% | –
O=C1NC(=O)N(c2ccccc2)C(=O)/C1=C\c1ccc([N+](=O)[O-])s1 | – | active: 17.8 µM
Cc1cccc(NC(=O)C2CCCN(S(=O)(=O)c3ccc4c(c3)oc(=O)n4C)C2)c1 (stereo not drawn) | inactive: -20.9% | –
